Experimental data reported in PubChem BioAssay AID1345083 (National Center for Advancing Translational Sciences (NCATS), 2018).
The whole screen tested about 94,000 compounds, of which about 6,200 (6.6%) were called active. This list was built around the results that the source calls inconclusive (neither active nor inactive); the mix of calls is not that of the screen. Calls follow the shape of the dose curve; as a rule, active = well fitted inhibition curve with a large enough effect; inconclusive = small, poorly fitted or top-dose-only effect; inactive = flat fitted curve, though single readings scatter. Potencies of inconclusive entries are doubtful fits and often do not repeat.

assay: Cytotoxic Profiling in HEK 293 Cell Line of Diverse Libraries Using Quantitative High-Throughput Screening; details: HEK 293 viability, ATP luminescence (CellTiter-Glo), 48-72 h; activity change, negative = cytotoxicity: at 115 µM (top of the series) unless noted; series mostly up to 115 µM; also: nearly all actives have a fitted effect of over 60% in size
Outline: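 Cells seeded first (HEK 293, 250 cells/well), then compound added by pintool. Incubation ran 48 or 72 hr at 37 degree Celsius. CellTiter-Glo was added and luminescence imaged after 10 min at room temperature.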
% is scaled to controls: 0 for no effect and ±100 for the full control effect; potency is read from the fitted curve at half-maximal effect; tags tell the direction and shape of the fitted curve.

| Structure (SMILES) | Potency | activity change, negative = cytotoxicity | outcome |
| --- | --- | --- | --- |
| COc1cccc(CN2CCC3(CC2)c2[nH]c4ccccc4c2CCN3C)c1 | active: 25.1 µM | – | – |
| CCC(=O)N1CCN(c2nc3c(s2)CC(C(=O)Nc2ccc(F)cc2F)CC3)CC1 (stereo not drawn) | active: 10 µM | – | – |
| CCN(CC)CCn1cnc(-c2ccccc2)c1-c1cnc(C)s1 | – | inactive: -20.5% | – |
| COc1ccc(NC(=O)c2nnn3c2COC(c2ccc(F)cc2)C3)cc1Cl (stereo not drawn) | inconclusive: 35.5 µM [inhibitor, partial curve, poor fit] | – | – |
| CCCN(CC1CCOC1)C(=O)Nc1c(C)cccc1C (stereo not drawn) | – | inactive: 4.61% | – |
| COCC(=O)N1CCCn2cc(-c3cccc(C#N)c3)nc21 | inconclusive: 35.5 µM [inhibitor, partial curve] | – | – |
| O=C(NC1CCN(c2ccc3nnc(C4CC4)n3n2)C1)c1ccc2c(c1)OCO2 (stereo not drawn) | – | inactive: -19% | – |
| CCn1cc(S(=O)(=O)N2CCC3(CC2)CN(C(C)=O)CC3COC)cn1 (stereo not drawn) | – | inactive: 1.43% | – |
| Cc1nc2c(OCC(=O)c3ccccc3)cccn2c(=O)c1-c1cc(C)n(-c2ccccc2)n1 | inconclusive: 79.4 µM [inhibitor, partial curve, poor fit] | – | – |
| N#CC1CCN(C(=O)c2nc(-c3ccc(Cl)cc3Cl)c3ccccn23)CC1 | inconclusive: 50.1 µM [inhibitor, partial curve, poor fit] | – | – |
| COc1cccc(N2CCN(c3nc(C(=O)NCc4cccc(C)c4)cs3)CC2)c1 | inconclusive: 17.8 µM [inhibitor, full curve, poor fit] | – | – |
| COc1ccccc1-c1[nH]nc2ncc(C(=O)NCCN3CCOCC3)nc12 | – | inactive: -18.8% [at 172 µM] | – |
| C[C@H](O)c1onc(-c2ccc(F)cc2)c1C(=O)NC1CCC1 | inconclusive: 126 µM [inhibitor, single point] | – | – |
| COCCCn1c(=O)c(C(=O)N2CCN(C(=O)Cc3cccc(Cl)c3)CC2)nc2cccnc21 | – | inactive: 2.7% | – |
| O=C(NCCc1cccs1)C1CCN(C(=O)c2ncn3c2COC(c2ccc(F)cc2)C3)CC1 (stereo not drawn) | – | inactive: -2.08% | – |
| CCn1ncc(N2CCC(NC(=O)c3cccc(N(C)C)c3)CC2)cc1=O | – | inactive: -1.46% | – |
| O=C(CCc1nc2ccccc2s1)NCC1Cn2cccc2CN1Cc1ccccc1 (stereo not drawn) | inconclusive: 79.4 µM [inhibitor, partial curve, poor fit] | – | – |
| NC(=O)c1cccnc1N1CCC2(CC1)CC(C(=O)O)N(C(=O)C1CC1)C2 (stereo not drawn) | – | inactive: -2.52% | – |
| O=c1[nH]c(N2CCOCC2)nc2c1CCN(Cc1ccc(Cl)cc1F)CC2 | inconclusive: 39.8 µM [inhibitor, full curve, poor fit] | – | – |
| CCC(C)Oc1ccccc1CNc1ncnc2c1c(C)nn2C (stereo not drawn) | inconclusive: 56.2 µM [inhibitor, partial curve, poor fit] | – | – |
| Cc1cc2nc3n(c(=O)c2n1CC(=O)Nc1cccc(C(F)(F)F)c1)CCCC3 | active: 28.2 µM | – | – |
| COc1ccc(CCNC(=O)c2cc(-c3cc(Cl)cc(Cl)c3)c3nncn3n2)cc1 | – | inactive: -1.62% | – |
| CC1CCCC(C)N1C(=O)c1ccc2nc(-c3cccnc3)oc2c1 (stereo not drawn) | – | inactive: 3.62% [at 172 µM] | – |

| Structure (SMILES) | Potency | activity change, negative = cytotoxicity | outcome |
| --- | --- | --- | --- |
| CN1CC2(CCN(C(=O)CC3CCCC3)CC2)CC1CN1CCOCC1 (stereo not drawn) | – | inactive: -7.11% | – |
| CCOc1ccc(CC(=O)Nc2cccc(-c3nnc4n3CCCC4)c2)cc1 | inconclusive: 44.7 µM [inhibitor, partial curve, poor fit] | – | – |
| Cn1ncc2c(C(=O)N3CCN(Cc4ccccc4)CC3)cc(-c3cccc(F)c3)nc21 | inconclusive: 50.1 µM [inhibitor, partial curve, poor fit] | – | – |
| CCNC(=O)N[C@H]1CO[C@H]2[C@@H]1OC[C@H]2OC(=O)Nc1cccc(C(F)(F)F)c1 | inconclusive: 79.4 µM [inhibitor, partial curve] | – | – |
| CC(C)[C@@H]1C[C@@H]2C[C@@H](Nc3ccccn3)C[C@]2(c2ccccc2)CO1 | inconclusive: 22.4 µM [inhibitor, full curve, poor fit] | – | – |
| Cc1ccc(NC(=O)CC2CCCN(c3cn[nH]c(=O)c3)C2)cc1C (stereo not drawn) | inconclusive: 70.8 µM [inhibitor, single point] | – | – |
| COCCn1cnnc1C(C)NC(=O)c1cn(C2CCC(N)CC2)nn1 (stereo not drawn) | inconclusive: 35.5 µM [inhibitor, single point] | – | – |
| COc1cccc2c1ccn2CCNC(=O)C1CC(=O)N(c2n[nH]c3ccccc23)C1 (stereo not drawn) | – | inactive: -15.3% | – |
| COc1cccc(C(=O)N2CCC3(CC2)N(c2ccccc2)C(=O)CS3=O)c1 (stereo not drawn) | – | inactive: -7.21% | – |
| COc1ccc(CC(=O)N[C@@H]2CN(c3ccccn3)C[C@H]2CN(C)C)cc1 | – | – | inactive |
| CC(C)CNC(=O)c1cc(C2CC2)nc2c1c(C1CCCN1)nn2C (stereo not drawn) | – | inactive: -2.86% | – |
| Cc1cc(NC(=O)CN2C(=O)NC(c3ccc(Cl)cc3)C3=C2COC3=O)ccc1Br (stereo not drawn) | inconclusive: 10 µM [inhibitor, full curve, poor fit] | – | – |
| COc1ccc(NC(=O)CCc2ccnc(N3CCCC3)c2)c(C)c1 | inconclusive: 50.1 µM [inhibitor, partial curve, poor fit] | – | – |
| CNc1cc(C2CC(NC(=O)COc3ccc(Cl)cc3C)C2)nc(N)n1 (stereo not drawn) | active: 17.8 µM | – | – |
| Cc1ccc(C(=O)N2CCN(c3cc(-c4cccs4)[nH]n3)CC2)c(C)c1 | active: 44.7 µM | – | – |
| COc1ccc(-c2cc3nc4c(c(=O)n3[nH]2)CN(C(=O)CCCc2nc3ccccc3s2)CC4)cc1 | inconclusive: 44.7 µM [inhibitor, partial curve, poor fit] | – | – |
| COc1cccc(C(=O)N2CCC(n3cc(-c4nc(C)no4)nn3)C2)c1 (stereo not drawn) | – | inactive: -0.213% | – |
| O=C(CC1CCCC1)N1CC[C@@H]2COCCN(Cc3ccccc3)[C@@H]2C1 | active: 79.4 µM | – | – |
| CN(Cc1cccc(C(F)(F)F)c1)C(=O)Nc1ccccc1 | inconclusive: 100 µM [inhibitor, partial curve, poor fit] | – | – |
| COCCCn1c(=O)c(C(=O)N2CCN(C(C)=O)CC2)nc2cccnc21 | – | inactive: -11.9% | – |
| CCCN1CCN(C(=O)c2ccc3c(c2)n(Cc2ccc(F)cc2)c(=O)c2ccnn23)CC1 | inconclusive: 50.1 µM [inhibitor, partial curve, poor fit] | – | – |
| O=C(NCc1ccc(F)cc1)c1ccc2oc(-c3cccnc3Cl)nc2c1 | inconclusive: 79.4 µM [inhibitor, partial curve, poor fit] | – | – |
| O=C(c1ccc(F)cc1)N1CCC(C(=O)N2CCC(N3Cc4ccccc4C3=O)CC2)CC1 | inactive | – | – |

| Structure (SMILES) | Potency | activity change, negative = cytotoxicity | outcome |
| --- | --- | --- | --- |
| CC(C)CCN1CCC(C2CCN(Cc3cccnc3)CC2)C1 (stereo not drawn) | – | inactive: -19.3% | – |
| O=C(Nc1ccc2c(c1)CCC2)c1cc2n(n1)CC(c1ccc(Cl)cc1)OC2 (stereo not drawn) | inconclusive: 44.7 µM [inhibitor, partial curve, poor fit] | – | – |
| O=C(NCc1cccs1)c1cccc2c1CCN2C(=O)c1ccc(F)cc1 | inconclusive: 22.4 µM [inhibitor, full curve, poor fit] | – | – |
| O=C(Nc1ccc(F)cc1)N1CCC(N2CC3CC(C2)[C@H]2CCCC(=O)N2C3)CC1 (stereo partly drawn) | – | inactive: -5.05% | – |
| Cc1ccc(C(=O)N2CCCN(C)c3ccccc32)cc1C | inconclusive: 10 µM [inhibitor, full curve, poor fit] | – | – |
| CN(CCc1ccccc1)Cc1cc(C(=O)N2CCOc3ccccc3C2)no1 | inconclusive: 35.5 µM [inhibitor, partial curve, poor fit] | – | – |
| O=C(NCc1ccccc1)C1CCCN(c2nccc(Nc3ccccc3F)n2)C1 (stereo not drawn) | active: 17.8 µM | – | – |
| COc1ccc(Cl)cc1NC(=O)Cn1c(N2CCN(c3ccccc3)CC2)nc(C)cc1=O | inconclusive: 31.6 µM [inhibitor, partial curve, poor fit] | – | – |
| O=C([C@@H]1CCCN1c1nccc(Nc2ccccc2Cl)n1)N1CCOCC1 | inconclusive: 70.8 µM [inhibitor, partial curve, poor fit] | – | – |
| O=C1N[C@H](CCC(=O)N2CCN(CCc3ccncc3)CC2)C(=O)Nc2ccccc21 | – | inactive: 5.7% | – |
| CC(C)n1cc(CN2CCC(Oc3ccc(C(=O)NC4CCCC4)cc3Cl)CC2)cn1 | inconclusive: 89.1 µM [inhibitor, single point] | – | – |
| O=C1N(c2ccccc2)c2ccccc2C12CCN(CC1CCCCC1)C2 (stereo not drawn) | inconclusive: 50.1 µM [inhibitor, partial curve, poor fit] | – | – |
| O=C(NCC(F)F)c1cc(-c2cccc(C(F)(F)F)c2)c2cccn2n1 | active: 35.5 µM | – | – |
| CSCc1noc(Cc2c(C)nn(-c3ccccc3)c2C)n1 | inconclusive: 89.1 µM [inhibitor, single point] | – | – |
| Cc1nn(-c2ccccc2)c2c1C(C)N(C1CCCN(C(=O)NC3CCCC3)C1)C2=O (stereo not drawn) | inconclusive: 89.1 µM [inhibitor, partial curve, poor fit] | – | – |
| Cc1ccc(C(=O)N2CCC(Cc3nc(-c4ccc(F)cc4)no3)CC2)cn1 | inconclusive: 8.91 µM [inhibitor, partial curve, poor fit] | – | – |
| O=C(c1ccc(-c2cccs2)cc1)N1CCC(C(=O)N2CCOCC2)CC1 | inconclusive: 39.8 µM [inhibitor, full curve, poor fit] | – | – |
| CCn1ccc(C(=O)N2CCC(Oc3ccccc3-c3nc(C4CCOCC4)no3)C2)n1 (stereo not drawn) | inconclusive: 89.1 µM [inhibitor, single point] | – | – |
| COc1ccc2[nH]c(=O)c(CCC(=O)O)cc2c1 | – | inactive: 1.05% | – |
| CCn1cc(S(=O)(=O)N2CCC(OCc3noc(C4CCCO4)n3)CC2)cn1 (stereo not drawn) | – | inactive: -1.93% | – |
| O=C(C1CCCC1)N1CCCC(n2cc(-c3nc(-c4ccccc4)no3)nn2)C1 (stereo not drawn) | inconclusive: 50.1 µM [inhibitor, partial curve, poor fit] | – | – |
| Cc1ccc(S(=O)(=O)N2CCCC(CCC(=O)NCCCc3ccccc3)C2)cc1 (stereo not drawn) | inconclusive: 79.4 µM [inhibitor, partial curve, poor fit] | – | – |
